The test system of series [1] is HeLa Kyoto. Description: melting temperature (median over replicates), in situ; higher = more thermally stable.
Series [2] relates to HeLa Kyoto. Description: thermal stability score vs G1/S (z-score of summed log2 fold changes over temperatures); higher = more thermally stable than in G1/S.
The subject of series [3] is HeLa Kyoto. Description: solubility in G1/S (NP-40 vs SDS abundance) (log2 ratio); higher = more soluble. Particulars: cell cycle stage: G1/S.
The subject of series [4] is HeLa Kyoto. The series is described as follows: solubility change mitosis vs G1/S (difference of NP-40 vs SDS log2 ratios) (log2 ratio difference); higher = more soluble in mitosis.
Where [5] appears, read: cell cycle stage: early G1 (4.5 h after nocodazole release).
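Wherever melting temperature (median over replicates), in situ is given: HeLa Kyoto cells synchronized by double thymidine or nocodazole block, proteins quantified by TMT10plex mass spectrometry, three independent biological replicates.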
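Wherever solubility change mitosis vs G1/S (difference of NP-40 vs SDS log2 ratios) is given: synchronized HeLa Kyoto cells (double thymidine block for G1/S, nocodazole release for mitosis), protein amounts in NP-40 versus SDS lysates quantified by mass spectrometry, three biological replicates.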
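Wherever solubility in G1/S (NP-40 vs SDS abundance) is given: HeLa Kyoto cells arrested at G1/S by double thymidine block, proteins quantified by TMT10plex mass spectrometry in mild NP-40 versus SDS extracts, three biological replicates.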
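Wherever thermal stability score vs G1/S (z-score of summed log2 fold changes over temperatures) is given: synchronized HeLa Kyoto cells, proteins quantified by TMT10plex mass spectrometry, three biological replicates, mitosis taken 0.5 h after nocodazole release, G1/S directly after double thymidine block.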

For “MSARLPVLSPPRWPRLLLLSLLLLGAVPGPRRSGAFYLPGLAPVNFCDEEKKSDECKAEIELFVNRLDSVESVLPYEYTAFDFCQASEGKRPSENLGQVLFGERIEPSPYKFTFNKKETCKLVCTKTYHTEKAEDKQKLEFLKKSMLLNYQHHWIVDNMPVTWCYDVEDGQRFCNPGFPIGCYITDKGHAKDACVISSDFHERDTFYIFNHVDIKIYYHVVETGSMGARLVAAKLEPKSFKHTHIDKPDCSGPPMDISNKASGEIKIAYTYSVSFEEDDKIRWASRWDYILESMPHTHIQWFSIMNSLVIVLFLSGMVAMIMLRTLHKDIARYNQMDSTEDAQEEFGWKLVHGDIFRPPRKGMLLSVFLGSGTQILIMTFVTLFFACLGFLSPANRGALMTCAVVLWVLLGTPAGYVAARFYKSFGGEKWKTNVLLTSFLCPGIVFADFFIMNLILWGEGSSAAIPFGTLVAILALWFCISVPLTFIGAYFGFKKNAIEHPVRTNQIPRQIPEQSFYTKPLPGIIMGGILPFGCIFIQLFFILNSIWSHQMYYMFGFLFLVFIILVITCSEATILLCYFHLCAEDYHWQWRSFLTSGFTAVYFLIYAVHYFFSKLQITGTASTILYFGYTMIMVLIFFLFTGTIGFFACFWFVTKIYSVVKVD [TM9SF2]”, the melting temperature with HeLa Kyoto [1] (cell cycle stage: G1/S) was found to be 54.7 °C; in the series with HeLa Kyoto [1] (cell cycle stage: mitosis), 55.3 °C. Moreover, the thermal stability score with HeLa Kyoto [2] (setting [5]) was 1.95; with HeLa Kyoto [2] (cell cycle stage: mitosis) it was 0.195. Also, the “solubility in G1/S (log2)” value with HeLa Kyoto [3] is -0.234. Besides, the “solubility change mitosis (log2)” value with HeLa Kyoto [4] was -0.0605.

For “MTAPEKPVKQEEMAALDVDSGGGGGGGGGHGEYLQQQQQHGNGAVAAAAAAQDTQPSPLALLAATCSKIGPPSPGDDEEEAAAAAGAPAAAGATGDLASAQLGGAPNRWEVLSATPTTIKDEAGNLVQIPSAATSSGQYVLPLQNLQNQQIFSVAPGSDSSNGTVSSVQYQVIPQIQSADGQQVQIGFTGSSDNGGINQESSQIQIIPGSNQTLLASGTPSANIQNLIPQTGQVQVQGVAIGGSSFPGQTQVVANVPLGLPGNITFVPINSVDLDSLGLSGSSQTMTAGINADGHLINTGQAMDSSDNSERTGERVSPDINETNTDTDLFVPTSSSSQLPVTIDSTGILQQNTNSLTTSSGQVHSSDLQGNYIQSPVSEETQAQNIQVSTAQPVVQHLQLQESQQPTSQAQIVQGITPQTIHGVQASGQNISQQALQNLQLQLNPGTFLIQAQTVTPSGQVTWQTFQVQGVQNLQNLQIQNTAAQQITLTPVQTLTLGQVAAGGAFTSTPVSLSTGQLPNLQTVTVNSIDSAGIQLHPGENADSPADIRIKEEEPDPEEWQLSGDSTLNTNDLTHLRVQVVDEEGDQQHQEGKRLRRVACTCPNCKEGGGRGTNLGKKKQHICHIPGCGKVYGKTSHLRAHLRWHSGERPFVCNWMYCGKRFTRSDELQRHRRTHTGEKKFVCPECSKRFMRSDHLAKHIKTHQNKKGIHSSSTVLASVEAARDDTLITAGGTTLILANIQQGSVSGIGTVNTSATSNQDILTNTEIPLQLVTVSGNETME [SP3]”, the melting temperature in the series with HeLa Kyoto [1] (cell cycle stage: mitosis) was 52.5 °C. In addition, the values for the thermal stability score in the series on HeLa Kyoto [2] (setting [5]) and in the series on HeLa Kyoto [2] (cell cycle stage: mitosis) were -1.44 and -3.87, respectively. Also, in the series with HeLa Kyoto [3], the “solubility in G1/S (log2)” value is -0.349. Besides, the “solubility change mitosis (log2)” value in the series with HeLa Kyoto [4] came to 0.162.

The record behind these values is the supplement of paper PMC5998384.
